Among all 340,000 compounds or so, about 6,900 (2%) were called active. Cut-off read from the data, not from the text of the source: active = inhibition above about 30%; inactive = below that, where a call was filed. This is a selection; strong and weak results do not stand in their true shares. Where no call is shown, the source filed none.

Sequence of UniProt P14416 (P14416 whole entry, looked up): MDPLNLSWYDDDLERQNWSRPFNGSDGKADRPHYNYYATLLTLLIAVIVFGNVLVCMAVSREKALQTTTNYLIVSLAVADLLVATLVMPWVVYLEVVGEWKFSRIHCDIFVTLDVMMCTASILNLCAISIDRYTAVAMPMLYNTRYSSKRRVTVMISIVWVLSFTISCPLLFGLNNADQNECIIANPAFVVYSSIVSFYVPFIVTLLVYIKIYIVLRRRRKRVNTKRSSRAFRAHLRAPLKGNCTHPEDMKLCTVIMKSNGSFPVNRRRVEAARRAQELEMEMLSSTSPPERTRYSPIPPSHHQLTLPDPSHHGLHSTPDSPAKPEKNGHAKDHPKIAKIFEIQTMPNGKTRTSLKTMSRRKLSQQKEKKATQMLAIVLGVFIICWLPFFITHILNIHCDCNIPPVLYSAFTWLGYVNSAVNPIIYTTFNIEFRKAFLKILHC

For the assay, the target named is D(2) dopamine receptor (Homo sapiens) (UniProt P14416). Put plainly: HTS Assay for Allosteric Antagonists of the Human D2 Dopamine Receptor: Primary Screen for Antagonists. Note: 0% is about no effect. To be noted: HEK293 TREx D2 cells, calcium flux, dopamine EC80; at 10 µM; stronger effect = higher value. A digest of the protocol:
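Calcium mobilization kinetics were recorded at 1 s intervals in tetracycline-induced HEK293 T-REx D2 cells, first for 180 s after compound addition and then 180 s after EC80 dopamine.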
On the technique in general: Calcium flux is commonly read through the fluorescence of an indicator in the cells.
In general, inhibition refers to the relative decrease from the control value, in per cent. On to `Cc1nc2ncnn2c(C)c1CCC(=O)N1CCN(c2cccc(Cl)c2)CC1`, for which the inhibition was determined as 5.41%.
For the compound `CCOC(=O)c1cccc(NS(=O)(=O)c2cc3[nH]c(=O)c(=O)[nH]c3cc2C)c1`, the inhibition is -11.7%.
In the case of `CC1CCC2(CC1)N=C(c1ccccc1)C(=O)N2CC(=O)Nc1ccc(F)c(Cl)c1` (stereo unspecified), the inhibition is -0.929%.
In the case of `O=C(C1COc2ccccc2O1)N1CCN(c2ccccc2)CC1` (stereo unspecified) it was active: 40.6%.
As to `COc1cccc(CNC(=O)COCc2cc(-c3ccc4c(c3)OCO4)on2)c1`, the inhibition worked out at 5.19%.
On to `CCc1ccc(NC(=O)c2nnn(Cc3cccc(C(F)(F)F)c3)c2N)cc1`, for which the inhibition worked out at 10.5%.
In the case of `CCCOc1ccc(NC(=O)CC2C(=O)N(c3ccc(C)cc3)C(=O)N2Cc2cccc(OC)c2)cc1` (stereo unspecified) it was 6.42%; in that of `CCOC(=O)C1CCN(c2c(C(=O)c3ccc(C)cc3)cnc3ccc(F)cc23)CC1`, -0.0758%.
In the case of `O=c1c2cc3c(nc2ncn1Cc1ccc(Cl)cc1)CCCC3` it was -6.39%; in that of `Cc1cccc(C(=O)NCC(=O)OC(C)C(=O)Nc2ccc(Cl)cn2)c1` (stereo unspecified), active: 37.2%.
With `O=S(=O)(c1ccc2[nH]c3c(c2c1)CCCCC3)N1CCN(c2cccc(Cl)c2)CC1`, the inhibition is -1.89%.
With `Cc1ccccc1CNC(=O)c1sc2ncnc(N(C)C3CCCCC3)c2c1C` the figure was -0.952%; with `CC1=C(C(=O)Nc2cccc(C(F)(F)F)c2)C2(CCCCC2)OC1=O`, 11%.
With `Cc1cccc(NC(=O)c2sc(-n3nc(C)c(CCC(C)C)c3C)nc2C)c1C`, the inhibition was -3.8%.
With `Cn1cnnc1SCC(=O)Nc1nc(-c2ccccc2)cs1`, the inhibition is active: 55.6%.
In the case of `O=C(Cn1c(-c2cccs2)cc2ccccc21)NCc1ccccc1Br` it was -7.16%.
For the compound `CSCCCN1CC[C@@H](N2CCN(c3ccccc3F)CC2)[C@H](O)C1`, the inhibition was active: 79.4%.
On to `CCc1cccc(C)c1NC(=O)CN1C(=O)C2(SCC(=O)N2c2cc(C)cc(C)c2)c2ccccc21` (stereo unspecified), for which the inhibition is -2.73%.
With `CN(C)S(=O)(=O)c1ccc2c(c1)N(CC(=O)N1CCN(c3ccccc3F)CC1)CCS2`, the inhibition was -14.5%.
As to `COc1cccc(C(=O)Nc2ccccc2-c2nc3ccccc3s2)c1`, the inhibition came to 9.53%.
As to `CCCN1C(=O)/C(=C/c2c(N3CCNC(=O)C3CC(=O)OC)nc3c(C)cccn3c2=O)SC1=S` (stereo unspecified), the inhibition is active: 42.7%.
On to `CCc1cccc(C)c1NC(=O)C1CCN(S(=O)(=O)Cc2ccccc2)CC1`, for which the inhibition came out at 1.59%.
With `Cc1ccc(Nc2nc(Nc3ccc(C)c(C)c3)nc(N3CCOCC3)n2)cc1C`, the inhibition was 8.04%.
As for `Cc1ccc(-n2nnnc2CNC(=O)c2ccccc2)cc1C`, the inhibition amounted to 0.67%.
For `COc1cc(C(=O)N2CCN(c3ccc(Nc4ccccc4)nn3)CC2)cc(OC)c1OC`, the inhibition is -17.4%.
On to `CC1CCCCN1S(=O)(=O)c1cc2c3c(c1)CC(=O)N3CCC2` (stereo unspecified), for which the inhibition was -22%.
On to `Cc1ccc(CNC(=O)CCCCn2c(=O)c3ccccc3n(Cc3ccc(C)cc3)c2=O)cc1`, for which the inhibition turned out to be 5.3%.
With `CCOC(=O)c1c(S(=O)(=O)N2CCC(C(=O)NCc3ccccc3OC)CC2)c(C)n(C)c1C`, the inhibition was -0.455%.
With `Cc1cc(C)cc(OCC(=O)N(Cc2ccc(Cl)cc2)CC2CCCO2)c1` (stereo unspecified) the figure was -14.6%; with `CCCCSCCCNC(=O)c1cn(C)c2ccc(S(=O)(=O)N3CCCC3)cc2c1=O`, 1.25%; with `COc1ccc(-c2nc3ccc(C)cn3c2Nc2ccc3c(c2)OCO3)cc1`, -11.4%.
For `Cc1ccc(-n2nc(C(=O)Nc3ccc(C)c(F)c3)c(=O)n(C)c2=O)cc1`, the inhibition came to 1.23%.
For `O=C(NC1CCCC1)c1ccc2c(=O)n(Cc3ccccc3)c(SCc3ccccc3)nc2c1`, the inhibition was 9.85%.
For `COc1cc(C(=O)Nc2ccc(NC(=O)c3ccc(Br)cc3)cc2)cc(OC)c1OC`, the inhibition amounted to 0.879%.
On to `COc1ccc(CCn2c3c(c(=O)[nH]c2=O)C(NC(=O)c2ccccc2OC)(C(F)(F)F)C(=O)N3)cc1OC` (stereo unspecified), for which the inhibition worked out at 14.8%.
In the case of `Cc1oc(-c2cccc(Cl)c2)nc1CSc1nc2ncccc2[nH]1` it was 8.38%; in that of `Cc1ccc(-n2ccnc(NCCc3ccc(S(N)(=O)=O)cc3)c2=O)cc1C`, -2.64%; in that of `CCC1CCCCN1C(=O)CSc1nc2c([nH]c3ccccc32)c(=O)n1-c1cccc(OC)c1` (stereo unspecified), 3.1%.
As to `COc1ccc(CNCC(O)COc2cccc3c2OC(C)(C)C3)cc1` (stereo unspecified), the inhibition was active: 44.3%.
With `O=C(COc1ccccc1Cl)Nc1ccc(Cl)c(-c2nc3ccccc3o2)c1` the figure was 17.7%; with `O=C(O)c1ccc2nc(-c3cc4cc(F)ccc4oc3=O)[nH]c2c1`, 9.46%; with `Cc1cccc(N2CCN(C(=O)c3cc4c(=O)n(C)c5ccccc5c4s3)CC2)c1C`, 11.2%.
For `COc1ccc(NC(=O)c2ccc(-c3ccccc3C(F)(F)F)o2)cc1`, the inhibition was active: 49.3%.
As to `Cc1ccc(CN2CCN(C3CCN(S(=O)(=O)c4ccc(C)cc4)CC3)C(=O)C2=O)cc1`, the inhibition was -6.97%.
For the compound `CCOc1ccc(NC(=O)C(=O)NCCc2csc3nc(-c4ccccc4F)nn23)cc1`, the inhibition is 8.47%.
With `COC(=O)c1ccc(Cl)cc1NC(=O)N(C)CCc1c(C)nn(C)c1C`, the inhibition is 9.5%.
As for `CCOc1ccc(NC(=O)Cn2cc(C(=O)c3ccc(C)c(C)c3)c(=O)c3cc(OC)c(OC)cc32)cc1`, the inhibition worked out at 8.42%.
Regarding `CCOC(=O)c1ccc(NC(=O)c2csc3c2CCCCC3)cc1`, the inhibition is -5.88%.
With `COc1cc(NC(=O)C(CC(C)C)NS(=O)(=O)c2ccc3c(c2)oc(=O)n3C)c(C(=O)O)cc1OC` (stereo unspecified) the figure was -8.26%; with `O=c1cc(-c2ccc(F)cc2)nc(SCc2nc(-c3ccccc3Cl)no2)[nH]1`, 0.972%; with `Cc1nn(Cc2ccc([N+](=O)[O-])cc2)c(=O)n1-c1cccc(Cl)c1`, active: 32.5%.
For the compound `COc1ccc(OC(C)c2nc3ccccc3[nH]2)cc1` (stereo unspecified), the inhibition was -10.7%.
For the compound `O=C(Nc1ccc2oc(-c3cccnc3)nc2c1)c1ccc(-c2ccccc2)o1`, the inhibition came to 10.3%.
For the compound `CC1CCCN(CCCCOc2cccc(Br)c2)C1` (stereo unspecified), the inhibition is active: 75%.
For `CCc1ccc(NC(=O)C(=O)NCC(c2cccnc2)N2CCN(C)CC2)cc1` (stereo unspecified), the inhibition worked out at 7.96%.
Regarding `CC(=O)N1CCC2(CC1)OC(=O)C(C)=C2C(=O)NCc1ccc(Cl)cc1`, the inhibition was -2.2%.
On to `Cn1ccc2c(OCC(=O)NCc3ccccc3Cl)cccc2c1=O`, for which the inhibition worked out at 19.5%.
As for `CCc1ccc(CNC(=O)c2ccc3nc(C(C)C)oc3c2)cc1`, the inhibition was -16.9%.
In the case of `CN(CCC#N)C(=O)Cn1nc(Cc2ccncc2)c2ccccc2c1=O`, the inhibition is active: 35.2%.
On to `COc1cccc(CNC(=O)Cc2c(C)c3c(cc(C)c4c(C)coc43)oc2=O)c1`, for which the inhibition turned out to be 13.8%.
With `CCOc1ccc(NC(=O)Nc2ccc3snnc3c2)cc1` the figure was -0.0812%; with `O=C(Cn1ncc2c3ccccc3n(Cc3ccccc3)c2c1=O)Nc1ccccc1C(F)(F)F`, 0.379%; with `COc1ccc(OC)c(CNC(=O)CCCn2nc(C)c3c(C)n(-c4ccc(C)cc4)nc3c2=O)c1`, 10.1%.
For the compound `CCn1ccc2cc(S(=O)(=O)N3CCCN(C(=O)Nc4cc(Cl)ccc4C)CC3)ccc21`, the inhibition was -15.4%.
For the compound `CC(C)c1ccc(NS(=O)(=O)c2ccc3[nH]cc(C(=O)N4CCCC4)c(=O)c3c2)cc1`, the inhibition was 1.64%.
As to `CC1CCN(C(=O)c2cc(-c3cccc(Cl)c3)on2)CC1`, the inhibition stood at 1.49%.
As for `CC(C)c1nnc(NC(=O)CS(=O)(=O)Cc2ccccc2)s1`, the inhibition is active: 54.6%.
As for `COc1ccc(-c2noc(-c3ccc(NCCc4ccccc4)c([N+](=O)[O-])c3)n2)cc1OC`, the inhibition came to 16.1%.
For the compound `Cc1cc(C)cc(-n2c(SCC(=O)NCC3CCCO3)nc3c([nH]c4ccccc43)c2=O)c1` (stereo unspecified), the inhibition amounted to 1.93%.
For the compound `CCOc1ccc(-c2cc(NC(=O)c3ccc(C)cc3)c(C(=O)OC)s2)cc1`, the inhibition is -6.45%.
On to `CN(C)CCCNC(=O)N1c2ccccc2C=Cc2ccccc21`, for which the inhibition was active: 33.4%.
With `CC(C)(C)C(=O)c1cnc(Nc2ccccc2)s1` the figure was active: 32.1%; with `COc1ccc2c(c1)-c1nc(NC(=O)c3ccc(C)cc3)sc1CC2`, 14%; with `O=C(NCc1ccc2c(c1)OCO2)c1ccc2c(c1)N(Cc1ccc(F)cc1)C(=O)c1ccccc1S2=O` (stereo unspecified), 13.1%.
As for `CCN(c1ccc(Cl)cc1)S(=O)(=O)c1nnc(NC(=O)C2CCCCC2)s1`, the inhibition is 23.3%.
Take `Cc1ccc2nc(N(Cc3cccnc3)C(=O)c3ccc4c(c3)OCCO4)sc2c1`: the inhibition is -4.91%.
Turning to `CCOCCc1nn2c(=O)cc(COC(=O)c3cccs3)nc2s1`, the inhibition was -1.45%.
For the compound `CCCN1C(=O)c2ccccc2CC1(C)C(=O)NC1CCCCC1` (stereo unspecified), the inhibition is 5.64%.
With `COc1ccccc1NC(=O)C1CCN(S(=O)(=O)c2ccc3c(c2)oc(=O)n3C)CC1`, the inhibition was found to be 0.396%.
In the case of `Cc1ccc(NC(=O)N2CCN(c3nnc(C)c4c(C)n(-c5ccccc5)nc34)CC2)cc1Cl` it was 10.1%; in that of `CCOc1ccccc1CNC(=O)c1cnc2sc(N3CCCC3)nn2c1=O`, 13.6%; in that of `CCOCCCn1c(SCC(=O)Nc2cccc(OC)c2)nc2ccccc2c1=O`, 11.3%.
With `Cc1cccc(CN2C(=O)CC(c3ccc(Cl)cc3)c3c(C)nn(-c4nc(C)cc(C)n4)c32)c1` (stereo unspecified), the inhibition was 13.6%.
With `COc1ccccc1N(CC(=O)Nc1ccccc1F)S(C)(=O)=O`, the inhibition is -7.97%.
As for `CCCNc1nc(NCc2ccccc2OC)c2cnn(C)c2n1`, the inhibition is 17.5%.
With `CCN(CCCNC(=O)c1cc2c(=O)[nH]c3ccc(C)cc3c2s1)c1ccc(C)cc1` the figure was -11.6%; with `COc1ccc(C2NC(=O)c3c(sc4c3CCN(C)C4)N2)cc1O` (stereo unspecified), 23.9%; with `Cc1ccc(Cl)cc1N1CCN(S(=O)(=O)c2ccc3[nH]c4c(c3c2)CCCC4)CC1`, 5.67%.
In the case of `Cc1cccc(N2CCN(C(=O)C3CCN(S(=O)(=O)c4cn(C)cn4)CC3)CC2)c1C` it was 15.6%; in that of `COc1ccccc1NC(=O)CN1C(=O)c2cccc3cccc1c23`, -3.63%.
On to `CCCCCn1c(=O)[nH]c2cc(C(=O)NCc3ccc(OC)cc3)ccc2c1=O`, for which the inhibition is -3.41%.
Take `CCOC(=O)c1ccc(NC(=O)CCS(=O)(=O)c2ccc3c(c2)oc(=O)n3C)cc1`: the inhibition was -11.1%.
For `CCc1ccc(-n2nc(C)c3c(C(=O)NCCc4ccc(OC)c(OC)c4)cc(C)nc32)cc1`, the inhibition is -8.16%.
For `COc1ccc(CN2COc3ccc4c(-c5ccc(OC)cc5)cc(=O)oc4c3C2)cc1`, the inhibition came out at 17.9%.
For the compound `Cc1ccc(-c2nc(S(=O)(=O)c3ccc(C)cc3)c(N3CCN(c4ccccc4)CC3)o2)cc1`, the inhibition worked out at 0.976%.
As for `CCN(CC)CCNC(=O)c1cc(Cl)c(N)cc1OC`, the inhibition is active: 81.8%.

The values are drawn from PubChem BioAssay AID485344 (National Center for Advancing Translational Sciences (NCATS), 2010).
